Source: PubChem BioAssay AID2546 (National Center for Advancing Translational Sciences (NCATS), 2010)
About 11,000 (3.5%) of roughly 310,000 compounds were called active. This list was built around the results that the source calls inconclusive (neither active nor inactive); the mix of calls is not that of the screen. Calls follow the shape of the dose curve; as a rule, active = well fitted inhibition curve with a large enough effect; inconclusive = small, poorly fitted or top-dose-only effect, or effect the other way; inactive = flat fitted curve, though single readings scatter. Potencies of inconclusive entries are left out as doubtful fits.
% is scaled to controls: 0 for no effect and ±100 for the full control effect; potency is read from the fitted curve at half-maximal effect; tags tell the direction and shape of the fitted curve.

Assay: VP16 counterscreen qHTS for inhibitors of ROR gamma transcriptional activity;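 also: Gal4-VP16 expression switched on by copper sulfate through the metallothionein promoter; nearly all actives have a fitted effect of over 50% in size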
Settings: Drosophila S2 Gal4-VP16 UAS-luciferase, luminescence, 20 h; activity, negative = inhibition: at 53.6 µM (top of the series)
In the case of O=C(Nc1ccc(Cn2nnc3ccccc32)cc1)c1ccco1, the Potency is reported as inconclusive [inhibitor, single point]. For O=C1C(Nc2ccc(O)cc2)=C/C(=N/S(=O)(=O)c2cccs2)c2ccccc21, the Potency was active: 12.6 µM. For O=C(c1c[nH]c(C(=O)C(Cl)(Cl)Cl)c1)c1c(F)cccc1F, the Potency was inconclusive [inhibitor, single point]. In the case of O=c1c2ccccc2c(C=Nc2ccc(Cl)cn2)c(O)n1-c1cc(Cl)ccc1N1CCOCC1, the Potency is reported as “inactive”. In the case of Cc1ccc2[nH]c3c(=O)n(CCN4CCOCC4)cnc3c2c1, the Potency is reported as “inactive”. For CCOC(=O)C/C(=N\Nc1ncnc2ccccc12)c1ccccc1, the Potency was active: 6.31 µM. In the case of CCOC(=O)C1=C(C)NC(=O)NC1/C=C\c1ccccc1 (centres undefined), the Potency is reported as “inactive”. In the case of Cc1ccc2c(CN3CCCCC3)cc(=O)oc2c1, the Potency is reported as inconclusive [activator, single point]. In the case of O=C(COc1ccccc1)Nc1cc(Cl)ccc1Cl, the Potency is reported as “inactive”. With CCOC(=O)C(c1ccccc1)C(Nc1ccc(Cl)c(Cl)c1)c1ccccn1 (centres undefined) the Potency was inconclusive [inhibitor, single point]. In the case of C/C(CC(=O)Nc1ccc(N(C)C)cc1)=N\NC(=O)c1ccc(C(C)(C)C)cc1, the Potency is reported as active: 3.98 µM. With COc1ccc(/C=C2\SC(=O)N(CC(=O)Nc3ccc(F)cc3)C2=O)cc1O the Potency was inconclusive [inhibitor, single point]. With CCC(=O)NCCC(c1ccco1)c1ccccc1OC (centres undefined) the Potency was inconclusive [inhibitor, full curve]. In the case of O=C(NCc1cccc(Cl)c1)c1cc(COc2ccc3ncccc3c2)on1, the Potency is reported as active: 10 µM. With Cc1nn(C)c(Cl)c1NC(=O)OCc1ccc(F)cc1 the Potency was active: 1.78 µM. In the case of CN=C1N[C@H](c2ccccc2)N(c2ccccc2)S1, the Potency is reported as active: 28.2 µM. For O=C(C1CCCN(S(=O)(=O)c2cccc3nsnc23)C1)N1CCc2ccccc21 (centres undefined), the Potency was “inactive”. With COc1ccc(-c2nc(CN3CCN(Cc4cccc(Cl)c4)CC3)c(C)o2)cc1 the Potency was inconclusive [inhibitor, single point]. In the case of COc1ccc(C(=O)CNc2ccc(C)cc2C)cc1, the Potency is reported as “inactive”. For Cc1cc2nc(-c3ccc(SCC(=O)Nc4ccc5c(c4)OCCO5)nc3)[nH]c2cc1C, the Potency was inconclusive [inhibitor, full curve]. With CCCNc1ncnc2onc(C)c12 the Potency was “inactive”. With CCCOc1ccc(N2C(=O)CC(N(Cc3ccco3)C(C)=O)C2=O)cc1 (centres undefined) the Potency was inconclusive [activator, single point]. With Cc1ccc(C(=O)N(CC(=O)NC2CCCC2)c2ccccc2C)s1 the Potency was “inactive”. In the case of COC(=O)c1cn(C(=O)c2ccc(C)c(C)c2)c2ccccc12, the Potency is reported as inconclusive [activator, single point]. With CCCOc1ccc(CCC(=O)N/N=C/c2ccncc2)cc1 the Potency was inconclusive [inhibitor, single point]. For CCN(CC)C1=NS(=O)(=O)c2cc([N+](=O)[O-])ccc21, the Potency was “inactive”. With O=C(/C=C/c1ccc(Cl)cc1)Nc1ccc(CN2CCOCC2)cc1 the Potency was “inactive”. In the case of CC(Sc1nnc2c(n1)[nH]c1ccccc12)C(=O)N(C)C1CCCCC1 (centres undefined), the Potency is reported as inconclusive [inhibitor, single point]. For CCOc1ccc(NC(=O)CSc2nnc(-c3ccccc3Cl)n2Cc2ccco2)cc1, the Potency was “inactive”. With Cc1ccc(-c2nnc(SCC(=O)N/N=C/c3ccc(C)s3)n2-c2ccc(C)cc2)cc1 the Potency was inconclusive [inhibitor, single point]. In the case of COc1ccccc1NS(=O)(=O)c1ccc(Cl)c(NC(=S)NC(=O)C2CCCC2)c1, the Potency is reported as inconclusive [inhibitor, single point]. For CCn1c(SCc2nc3sc(C(=O)O)c(C)c3c(=O)[nH]2)nc2ccccc21, the Potency was “inactive”. With COc1ccc(C(=O)NNC(=O)c2ccc(C(C)(C)C)cc2)cc1 the Potency was “inactive”. In the case of CC(C)[C@H]1C(=O)Nc2ccccc2N1C(=O)N[C@@H](Cc1ccccc1)C(=O)N[C@H](C(=O)O)c1ccccc1, the Potency is reported as “inactive”. In the case of CC(NC(=S)NCc1ccc(F)cc1)C12CC3CC(CC(C3)C1)C2 (centres undefined), the Potency is reported as active: 5.01 µM. For Cc1ccc(S(=O)(=O)Cc2cc(F)c([N+](=O)[O-])cc2[N+](=O)[O-])cc1, the Potency was active: 6.31 µM. With CCCC(=O)Nc1ccc2c(c1)nc(CN1CCN(C(=O)OCC)CC1)n2CC the Potency was “inactive”. In the case of O=C(Nc1nnc(CSCc2ccccc2F)s1)c1cccc([N+](=O)[O-])c1, the Potency is reported as active: 5.01 µM. In the case of CC1Cc2cc(S(=O)(=O)NCCC(=O)NCc3ccc(F)cc3)ccc2N1C(=O)C1CC1 (centres undefined), the Potency is reported as inconclusive [inhibitor, single point]. With COc1ccc(NC(=S)NCc2ccco2)cc1 the Potency was inconclusive [inhibitor, single point]. For Cc1ccc(CN2CCSc3ccc(C(=O)N4CCN(c5ncccn5)CC4)cc32)cc1, the Potency was inconclusive [inhibitor, single point]. With CC(C)(C)c1nnc(NC(=S)Nc2ccccc2)s1 the Potency was active: 0.891 µM. In the case of COc1cc2[nH]c(=S)nc(NCc3cccs3)c2cc1OC, the Potency is reported as active: 12.6 µM. For C/C(=N\NC(=O)c1ccc(CN(C)S(=O)(=O)c2ccc(C)cc2)cc1)c1ccc(OC(F)F)cc1, the Potency was inconclusive [inhibitor, single point]. With COc1ccc(C(=O)Nc2nc3nccc(-c4ccccc4)n3n2)cc1 the Potency was “inactive”. With COc1ccc(CN2CCN(C(=O)C3CCC(CNS(=O)(=O)c4ccccc4)CC3)CC2)c(OC)c1OC (centres undefined) the Potency was inconclusive [inhibitor, single point]. In the case of Cc1csc(NC(=O)CSc2ccccc2F)n1, the Potency is reported as inconclusive [activator, partial curve]. With Cc1c(C(=O)NCCCc2ccccc2)cccc1[N+](=O)[O-] the Potency was inconclusive [inhibitor, single point]. With CC(NC(=O)Cn1ncc(Cl)c(Cl)c1=O)C12CC3CC(CC(C3)C1)C2 (centres undefined) the Potency was inconclusive [inhibitor, single point]. In the case of Cc1cc(C)nc(-n2nc(C)cc2NC(=O)CNCc2ccccc2)n1, the Potency is reported as inconclusive [inhibitor, single point]. With Cc1c(C)n(C)c2ccc(C(=O)Nc3cccc4ccccc34)cc12 the Potency was “inactive”. With O=C(Cn1cnc2ccccc2c1=O)NCCC(=O)Nc1ccc2c(c1)OCO2 the Potency was “inactive”. For CCCOc1cccc(C2C(C(=O)c3cc4ccccc4o3)=C(O)C(=O)N2c2cc(C)on2)c1 (centres undefined), the Potency was inconclusive [inhibitor, single point]. With O=C(CCCN1C(=O)/C(=C\c2cccs2)SC1=S)NNC(=O)c1cccnc1 the Potency was inconclusive [inhibitor, partial curve]. For COc1ccc(-n2nnnc2SCC(=O)Nc2ccccc2N2CCOCC2)cc1OC, the Potency was inconclusive [activator, single point]. For CCc1nc2ccccc2c(C(=O)OCC(=O)Nc2cccc(S(=O)(=O)N3CCOCC3)c2)c1C, the Potency was inconclusive [inhibitor, single point]. In the case of Nc1cccc2nc3ccccc3cc12, the Potency is reported as inconclusive [inhibitor, partial curve]. With COc1ccc2c(Cl)c(C(=O)NN)sc2c1 the Potency was inconclusive [inhibitor, single point]. With C[C@@](O)(/C=C/[C@H]1CC=CC(=O)O1)[C@@H](C[C@@H](O)\C=C/C=C\C=C\CO)OP(=O)(O)O the activity, negative = inhibition was inactive: -7.72% [at 10 µM]. For CCC(=O)N1c2ccc(S(=O)(=O)N3CCCCC3)cc2CC1C (centres undefined), the Potency was inconclusive [inhibitor, full curve, poor fit]. With COC(=O)/C=C1/N/C(=N\c2nc(C)cc(C)n2)N(c2ccc(C)c(C)c2)C1=O the Potency was inconclusive [inhibitor, single point]. With CCCc1ccc(C(C)NC(=O)c2cnccn2)cc1 (centres undefined) the Potency was inconclusive [inhibitor, single point]. With CN(C(=O)CSc1nnnn1-c1ccccc1)C1CCCCC1 the Potency was inconclusive [inhibitor, single point]. In the case of Cc1cc(C)cc(OC(=O)CS(=O)c2ccc(C(F)(F)F)cc2[N+](=O)[O-])c1 (centres undefined), the Potency is reported as inconclusive [inhibitor, single point]. In the case of CNCc1ccccc1Sc1cccc2ccccc12, the Potency is reported as inconclusive [inhibitor, single point]. For O=C(Oc1cccc2cccnc12)c1ccc(N2C(=O)C3C4CCC(C4)C3C2=O)cc1 (centres undefined), the Potency was active: 5.01 µM. In the case of C(=N\N1CCN(C2c3ccccc3-c3ccccc32)CC1)/c1ccccn1, the Potency is reported as inconclusive [inhibitor, partial curve]. With CCSc1nc2ccccc2n1Cc1cccc([N+](=O)[O-])c1 the Potency was “inactive”. In the case of CC(=O)N1CCc2cc(N=NC3=C(O)CC(C)(C)CC3=O)ccc21, the Potency is reported as inconclusive [inhibitor, single point]. With CCc1cc2c(=O)c(-c3ccc4c(c3)OCO4)coc2c(CN(C)C)c1O the Potency was “inactive”. In the case of C=CCc1cccc2cc(C(=O)Nc3cccc(C(=O)O)c3)c(=O)oc12, the Potency is reported as “inactive”. In the case of COCCCn1c(=S)[nH]c2sc3c(c2c1=O)CCCS3, the Potency is reported as active: 2.82 µM. With O=C/C=C/c1c(-c2ccccc2)cc2oc3ccccc3cc1-2 the Potency was inconclusive [inhibitor, single point]. For CS(=O)(=O)N(CC(=O)Nc1cccc([N+](=O)[O-])c1)c1cccc(F)c1, the Potency was “inactive”.
